{
  "source": "PubChem BioAssay AID651820",
  "about": "(National Center for Advancing Translational Sciences (NCATS), 2012)",
  "note": "Hit rate of the full screen: of about 340,000 compounds, about 12,000 (3.5%) were called active. The inconclusive results got no clear call from the source; some entries with a clear call stand among them for comparison. Calls come from the whole dose curve; as a rule, active = well fitted inhibition curve with a large enough effect; inconclusive = small, poorly fitted or top-dose-only effect, or another doubt; inactive = no such curve, though single readings can be large or run the other way. Potencies of inconclusive entries are left out as doubtful fits. Potency is the fitted concentration of half-maximal effect; tags give direction and shape of the fitted curve.",
  "data": [
    {"assay": "qHTS Assay for Inhibitors of Hepatitis C Virus (HCV)", "conditions": "Huh7.5.1 HCVcc-Cre (HCVcc is cell-culture hepatitis C virus) infection, luciferase reporter, 44 h; series mostly up to 41.8 µM", "in_short": "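Seed cells (1,000/well) for 4 h; treat with compound and infect with HCVcc-Cre, moi about 0.5. Incubate 44 h, then detect luciferase activity.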", "values": [
      {"compound": "CCOc1ccc(N(C)S(=O)(=O)c2ccc(C)c(C(=O)N3CCN(Cc4ccc5c(c4)OCO5)CC3)c2)cc1", "Potency": "inconclusive [inhibitor, partial curve]"},
      {"compound": "CCOC(=O)/C=C1\\CN(CCC(C)C)S(=O)(=O)c2ccccc21", "Potency": "inactive"},
      {"compound": "COc1cccc2c(=O)n(CC(=O)Nc3ccccc3F)ccc12", "Potency": "inactive"},
      {"compound": "COC(=O)c1ccc(NC(=O)Cn2c([N+](=O)[O-])cnc2C)cc1", "Potency": "inactive"},
      {"compound": "Cc1ccc(-c2nnn(CC(=O)N(c3ccccc3)C(C(=O)NCC3CCCO3)c3ccc(F)cc3)n2)o1", "note": "(centres undefined)", "Potency": "inactive"},
      {"compound": "COc1cc(COc2ccc(-c3nnco3)cc2)ccc1OC(F)F", "Potency": "inconclusive [inhibitor, single point]"},
      {"compound": "CC1CCC(NC(=O)CSc2nnc(-c3cccnc3)o2)CC1", "note": "(centres undefined)", "Potency": "inactive"},
      {"compound": "CC(=O)c1cccc(NC(=S)N2CCN(CCN3C(=O)c4cccc5cccc(c45)C3=O)CC2)c1", "Potency": "inconclusive [inhibitor, partial curve]"},
      {"compound": "COc1ccc(C(CNC(=O)c2oc3cc(C)c(Cl)cc3c2C)N2CCCCC2)cc1", "note": "(centres undefined)", "Potency": "inactive"},
      {"compound": "CC(C)(CNC(=O)Cc1ccc(Cl)cc1Cl)N1CCCCC1", "Potency": "inconclusive [inhibitor, full curve]"},
      {"compound": "N#CCc1nc2c3c4c(sc3ncn2n1)CCCC4", "Potency": "inactive"},
      {"compound": "O=C(CSc1nnc(-c2cccs2)o1)N1CCOCC1", "Potency": "inactive"},
      {"compound": "O=C(CCC(=O)Nc1ccccc1Cl)NNC(=O)COc1ccc([N+](=O)[O-])cc1", "Potency": "inactive"},
      {"compound": "CCn1c2ccccc2c2nc3cc(OC)c(OC)cc3nc21", "Potency": "inconclusive [inhibitor, full curve, poor fit]"},
      {"compound": "CCN(CC)C(=O)CCNS(=O)(=O)c1ccc(C)cc1", "Potency": "inconclusive [inhibitor, single point]"},
      {"compound": "CCOC(=O)c1c(C)[nH]c(C2=NNC(=Nc3ccccc3)SC2)c1C", "Potency": "inconclusive [inhibitor, partial curve]"},
      {"compound": "c1ccc2c(c1)oc1c(Nc3ccc4c(c3)OCCO4)ncnc12", "Potency": "inconclusive [inhibitor, full curve]"},
      {"compound": "O=C(COC(=O)CCc1nc2ccccc2c(=O)[nH]1)Nc1ccc2c(c1)OCO2", "Potency": "inactive"},
      {"compound": "C=CCNc1nc(Nc2ccc(-c3nc4ccccc4o3)cc2)nc(N2CCOCC2)n1", "Potency": "inconclusive [inhibitor, single point]"},
      {"compound": "COc1ccc(C=NN=C2c3ccccc3-c3ccccc32)cc1O", "Potency": "inconclusive [inhibitor, partial curve]"},
      {"compound": "Cc1ccc(N(C(=O)Cc2c[nH]c3ccccc23)C(C(=O)NC2CCCCC2)c2ccco2)cc1", "note": "(centres undefined)", "Potency": "inconclusive [inhibitor, single point]"},
      {"compound": "Cc1ccc(NC(=O)CCC(=O)OCC(=O)c2ccc(Oc3ccc([N+](=O)[O-])cc3)cc2)cc1C", "Potency": "inactive"},
      {"compound": "O=C(c1cccs1)N1N=C(c2ccc(O)cc2)CC1c1ccccc1", "note": "(centres undefined)", "Potency": "inconclusive [inhibitor, single point]"},
      {"compound": "Cc1ccc2c(CN(C)Cc3ccccc3)cc(=O)oc2c1C", "Potency": "inconclusive [inhibitor, single point]"},
      {"compound": "Cc1c(C(=O)N(C)c2ccccc2Cl)cnn1-c1ccccc1", "Potency": "inconclusive [inhibitor, partial curve]"},
      {"compound": "C/C(=N/NC(=O)C1CCN(S(=O)(=O)c2ccc(C)cc2)CC1)c1cccc([N+](=O)[O-])c1", "Potency": "inconclusive [inhibitor, single point]"},
      {"compound": "C[C@H](CO)N1C[C@H](C)[C@H](CN(C)Cc2ccc(-c3ccccc3)cc2)Oc2ccc(NS(=O)(=O)c3ccccc3)cc2CC1=O", "Potency": "inconclusive [inhibitor, single point]"},
      {"compound": "O=C(Nc1cccc(C(F)(F)F)c1)c1cc(-c2cccs2)on1", "Potency": "inactive"},
      {"compound": "CCOc1cc2c(cc1OCC)-n1cccc1C(c1cccc([N+](=O)[O-])c1)NC2", "note": "(centres undefined)", "Potency": "inconclusive [inhibitor, partial curve]"},
      {"compound": "CCCNc1ncnc2sc(C)c(C)c12", "Potency": "active: 8.91 µM"},
      {"compound": "CCN(CCO)c1ccc(NC(=S)Nc2cccc(S(=O)(=O)N(C)C)c2)cc1", "Potency": "inconclusive [inhibitor, single point]"},
      {"compound": "Cc1cc(C)cc(NC(=O)c2ccc(N3C(=O)C4CCCCC4C3=O)cc2)c1", "note": "(centres undefined)", "Potency": "inconclusive [inhibitor, full curve, poor fit]"},
      {"compound": "CCCc1cc(-c2n[nH]c(C(=O)OCC)c2-c2cscn2)c(O)cc1O", "Potency": "inconclusive [inhibitor, partial curve]"},
      {"compound": "COc1ccc(-c2noc(N3CCCC(C(=O)Nc4ccc(C(C)=O)cc4)C3)n2)cc1", "note": "(centres undefined)", "Potency": "inconclusive [inhibitor, partial curve]"},
      {"compound": "CC(=O)Nc1cccc(OCc2ccc(S(=O)(=O)Cc3ccccc3)cc2)c1", "Potency": "inconclusive [inhibitor, partial curve, poor fit]"},
      {"compound": "CCn1c(=O)c(C(=O)Nc2ccccc2S(N)(=O)=O)c(O)c2ccccc21", "Potency": "inconclusive [inhibitor, single point]"},
      {"compound": "COc1cccc2c1C(CO)N1C(C#N)C3CC(C(=O)O)C(C1C2)N3C", "note": "(centres undefined)", "Potency": "active: 1.12 µM"},
      {"compound": "COc1ccc(C(CCNCc2ccccc2)c2ccc(F)cc2)cc1", "note": "(centres undefined)", "Potency": "active: 6.31 µM"},
      {"compound": "COc1cc(C(=O)N2CCN(c3cc(Cl)ccc3Cl)CC2)cc(OC)c1OC", "Potency": "inconclusive [inhibitor, full curve, poor fit]"},
      {"compound": "Cn1c(=O)cc(SCC(=O)N2CCCC2)c2cc(Cl)ccc21", "Potency": "active: 10 µM"},
      {"compound": "CCOC(=O)c1ccc(N2C(=O)C(CC(=O)NC)N(CCc3ccc(OC)c(OC)c3)C2=S)cc1", "note": "(centres undefined)", "Potency": "inconclusive [inhibitor, partial curve]"},
      {"compound": "COc1ccc(NC(=O)CCC(=O)N(Cc2ccc(OC)c(OC)c2)c2nccs2)c(OC)c1", "Potency": "inactive"},
      {"compound": "Cc1ccc(C)c2sc(NC(=O)C3CC3)nc12", "Potency": "inconclusive [inhibitor, single point]"},
      {"compound": "O=C(NC1CC1)c1cccc(NC(=O)C2CCN(S(=O)(=O)c3cccc(C(F)(F)F)c3)CC2)c1", "Potency": "inactive"},
      {"compound": "Nc1cc2nn(-c3ccccc3)nc2cc1Cl", "Potency": "inconclusive [inhibitor, single point]"},
      {"compound": "C#CCOCCOCCOCCNc1nc(N2CCN(C(=O)CCCCCCCCCCNC(=O)Cn3cc(C[C@@H](C)O)nn3)CC2)nc(N2CCN(C(=O)CCCCCCCCCCNC(=O)[C@@H](CCSC)n3cc(CCO)nn3)CC2)n1", "Potency": "inactive"},
      {"compound": "C/C(=N\\NC(=O)CSCc1ccc([N+](=O)[O-])cc1)c1ccccc1", "Potency": "inconclusive [inhibitor, single point]"},
      {"compound": "O=C(Nc1cccc(F)c1)C1CCCCC1", "Potency": "inconclusive [inhibitor, partial curve]"},
      {"compound": "O=[N+]([O-])c1cc(F)c(N2CCOCC2)cc1N1CCCCC1", "Potency": "inconclusive [inhibitor, partial curve, poor fit]"},
      {"compound": "O=C(COC(=O)c1ccccc1O)NCCC1=CCCCC1", "Potency": "inconclusive [inhibitor, single point]"},
      {"compound": "COc1cc(C(=O)N(Cc2cc3cc(C)ccc3[nH]c2=O)CC2CCCO2)cc(OC)c1OC", "note": "(centres undefined)", "Potency": "inactive"},
      {"compound": "COc1ccc(NC(=O)Cn2ncn3nc(-c4ccc(OC)cc4)cc3c2=O)cc1", "Potency": "inconclusive [inhibitor, single point]"},
      {"compound": "O=C(NCc1ccc(Cl)cc1)C(=O)N/N=C/c1ccc(Br)cc1", "Potency": "inactive"},
      {"compound": "CC(C(=O)NCCS(=O)(=O)c1ccc(Cl)cc1)S(=O)(=O)c1ccc(Cl)cc1", "note": "(centres undefined)", "Potency": "inconclusive [inhibitor, partial curve]"},
      {"compound": "COc1ccccc1CNC(=O)C1CCN(S(=O)(=O)c2ccc3c(c2)NC(=O)CO3)CC1", "Potency": "inactive"},
      {"compound": "COc1ccc(Cc2noc(CN(C)CCc3ccccc3)n2)cc1OC", "Potency": "inconclusive [inhibitor, single point]"},
      {"compound": "COc1ccc(-n2nnnc2SCC(=O)Nc2ccccc2N2CCOCC2)cc1", "Potency": "inactive"},
      {"compound": "CC(N)Cc1c[nH]c2ccc(Cl)cc12", "note": "(centres undefined)", "Potency": "inconclusive [inhibitor, single point]"},
      {"compound": "C=CCn1c(SCCCC)nc(O)cc1=O", "Potency": "inactive"},
      {"compound": "O=C(/N=C1/c2ccccc2CN1c1ccccc1)Nc1ccccc1", "Potency": "inactive"},
      {"compound": "O=[N+]([O-])c1cc2c(cc1CNCCc1ccc3c(c1)OCO3)OCO2", "Potency": "inconclusive [inhibitor, single point]"},
      {"compound": "C=C1CCC[C@]2(C)C[C@H]3OC(=O)C(CNCCN(CC)CC)[C@H]3CC12", "note": "(some centres undefined)", "Potency": "inconclusive [inhibitor, single point]"},
      {"compound": "Cc1onc(-c2ccccc2)c1C(=O)N/N=C/c1c[nH]c2ccccc12", "Potency": "inconclusive [inhibitor, partial curve, poor fit]"},
      {"compound": "CCCn1cnc2c(sc3nc4c(cc32)CSC(C)(C)C4)c1=O", "Potency": "inconclusive [inhibitor, partial curve, poor fit]"},
      {"compound": "CCSc1nnc(NC(=O)COc2ccccc2[N+](=O)[O-])s1", "Potency": "inactive"},
      {"compound": "CCC1CCCN1Cn1cnc2c([nH]c3ccc(Cl)cc32)c1=O", "note": "(centres undefined)", "Potency": "inconclusive [inhibitor, single point]"},
      {"compound": "COC(=O)c1c(NC(=O)CSc2ncnc3ccccc23)sc(C)c1C", "Potency": "active: 17.8 µM"},
      {"compound": "Cc1c(NC(=O)c2cccc(-c3cc4ccccc4oc3=O)c2)cccc1-c1nc2ncccc2o1", "Potency": "inconclusive [inhibitor, partial curve]"},
      {"compound": "CN1CCC(OC(=O)C2c3ccccc3Oc3ccccc32)CC1", "Potency": "inconclusive [inhibitor, partial curve, poor fit]"}
    ]}
  ]
}
